# Measured values taken from PubChem BioAssay AID720542 (National Center for Advancing Translational Sciences (NCATS), 2013).
# The whole screen tested about 360,000 compounds, of which about 740 (0.21%) were called active. Inconclusive results, whose numbers are uncertain, are shown with a selection of clear calls. Calls follow the shape of the dose curve; as a rule, active = well fitted inhibition curve with a large enough effect; inconclusive = small, poorly fitted or top-dose-only effect; inactive = no such curve, though single readings can be large or run the other way. Potencies of inconclusive entries are left out as doubtful fits.
# System: Plasmodium falciparum AMA1 (3D7) - RON2 peptide interaction
# Assay: qHTS for Inhibitors of AMA1-RON; Towards Development of Antimalarial Drug Lead: Primary Screen; also: nearly all actives have a fitted effect of over 45% in size
# Settings: AlphaScreen AMA1-biotinylated RON2 peptide binding; series mostly up to 58.2 µM
# Outline: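 AMA1 (3D7) with his tag at 25 nM final met compounds first, then biotinylated RON2 peptide at 25 nM; detection used donor plus acceptor beads, 10 µg/mL apiece, read by AlphaScreen after 30 min at room temperature.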
# Potency is read from the fitted curve at half-maximal effect; tags tell the direction and shape of the fitted curve.
row,SMILES,Potency
1,Cc1cc(C)nc(N/N=C/c2ccccc2OCc2ccccc2)n1,inactive
2,CCCCNC(=O)NS(=O)(=O)c1ccc(NC(=O)CCC(=O)c2cccs2)cc1,inactive
3,CCOc1cc(C(=O)NC2CCCCCCC2)cc(OCC)c1OCC,inactive
4,COc1cc(/C=N/N2CCOCC2)ccc1OCc1ccccc1,"inconclusive [inhibitor, partial curve]"
5,Brc1ccsc1/C=N/Nc1ccccc1,"inconclusive [inhibitor, single point]"
6,CN(CCOc1ccccc1)CC(=O)Nc1ccc(Cl)cc1[N+](=O)[O-],"inconclusive [inhibitor, single point]"
7,O=C1c2ccccc2C(=O)N1Cc1nc2ccccc2c(=O)n1CCCN1CCOCC1,inactive
8,COc1ccc(NC(=O)C(NC(=O)CC2NC(=O)NC2=O)c2ccccc2)cc1 (stereo not given),inactive
9,COc1cccc(-c2cnc3c(NC=O)cc(-c4ccc(N5CCN(C)CC5)cc4)cn23)c1,"inconclusive [inhibitor, partial curve]"
10,Cc1ccc(C(=O)Nc2ccccc2Oc2ccccc2)o1,inactive
11,O=C1c2cccnc2C(=O)N1Cc1ccc(Cl)cc1,inactive
12,CC(C)(C)NC(=O)c1cccc(NC(=O)c2ccc(NC(=O)c3ccco3)cc2)c1,inactive
13,COc1ccc(Br)cc1CN(C)CC(=O)NCc1ccc(F)cc1,"inconclusive [inhibitor, partial curve, poor fit]"
14,Cc1cc(S(=O)(=O)NC2CCN(Cc3ccccc3)CC2)c(C)cc1Cl,"inconclusive [inhibitor, full curve, poor fit]"
15,Cn1cccc1-c1nc2ccccc2[nH]1,"inconclusive [inhibitor, partial curve]"
16,COc1ccc(S(=O)(=O)/N=C2\C=C(NS(=O)(=O)c3ccccc3)C(=O)c3ccccc32)cc1,"inconclusive [inhibitor, partial curve]"
17,Clc1cccc(C2CCN(Cc3nc(CC4CC4)no3)C2)c1 (stereo not given),"inconclusive [inhibitor, single point]"
18,COCCn1c(-c2ccc(Br)cc2)csc1=Nc1cccnc1,"inconclusive [inhibitor, single point]"
19,Cc1c(NC(=O)/C(C#N)=C/c2ccc(-c3ccccc3Cl)o2)c(=O)n(-c2ccccc2)n1C,"inconclusive [inhibitor, single point]"
20,CCn1c(SCC(=O)Nc2cccc(O)c2)nc2c1c(=O)n(C)c(=O)n2C,"inconclusive [inhibitor, partial curve, poor fit]"
